Assay results from the antibiotic and cytotoxicity screens of Wong et al. (2023).
The list shows a part of the results.

test system: S. aureus RN4220; assay: growth inhibition call (relative growth <= 0.2); conditions: 50 µM

Growth inhibition call, inactive:
COCCNC(=O)C[C@H]1CC[C@@H]2[C@H](COC[C@H](O)CN2S(=O)(=O)c2ccccc2C)O1
NCc1cc2ccc(F)cc2[nH]c1=O
C[C@H](CO)N1C[C@H](C)[C@@H](CN(C)C(=O)Nc2ccc3c(c2)OCO3)Oc2ccc(NC(=O)Nc3ccc(C(F)(F)F)cc3)cc2CC1=O
Cc1cc(Nc2cc(C)on2)nc([C@H]2CCN(C(=O)CN)C2)n1
C[C@@H]1CN([C@@H](C)CO)C(=O)c2cccc(NC(=O)Nc3ccccc3)c2O[C@@H]1CN(C)Cc1ccc(C(F)(F)F)cc1
O=C(C[C@@H]1C=C[C@H](NS(=O)(=O)c2ccc(F)cc2)[C@@H](CO)O1)N1CCC(Cc2ccccc2)CC1
C[C@H]1CN([C@@H](C)CO)C(=O)c2cccc(NC(=O)c3ccc(-c4nccs4)cc3)c2O[C@H]1CN(C)C(=O)Nc1ccc(C(F)(F)F)cc1
